Drawing on a collection of fitness landscapes (doi:10.1126/science.1257360), this text covers enrichment ratio for 195 variants.

Some of the results follow. Bounds are passed on as bounds.

B1: PhoQ; a variant is named by its letters at X, in order, P23837 (parent)
chain: MKKLLRLFFPLSLRVRFLLATAAVVLVLSLAYGMVALIGYSVSFDKTTFRLLRGESNLFYTLAKWENNKLHVELPENIDKQSPTMTLIYDENGQLLWAQRDVPWLMKMIQPDWLKSNGFHEIEADVNDTSLLLSGDHSIQQQLQEVREDDDDAEMTHSVAVNVYPATSRMPKLTIVVVDTIPVELKSSYMVWSWFIYVLSANLLLVIPLLWVAAWWSLRPIEALAKEVRELEEHNRELLNPATTRELTSLVRNLNRLLKSERERYDKYRTTLTDLTHSLKTPLXXLQXXLRSLRSEKMSVSDAEPVMLEQISRISQQIGYYLHRASMRGGTLLSRELHPVAPLLDNLTSALNKVYQRKGVNISLDISPEISFVGEQNDFVEVMGNVLDNACKYCLEFVEISARQTDEHLYIVVEDDGPGIPLSKREVIFDRGQRVDTLRPGQGVGLAVAREITEQYEGKIVAGESMLGGARMEVIFGRQHSAPKDE

The assay covers variants of B1. Put plainly: enrichment ratio after two sorts for PhoP signalling (ratio (wild type AVST 3.29)); higher = more functional. Particulars: with PhoP (E. coli).
With SQAP, the enrichment ratio was at most 0.25.
As for DFVT, the figure is at most 0.25.
As for SWPP, the enrichment ratio was at most 0.25.
The result for NRKH reads at most 0.25; that for KYRN, at most 0.25.
As for MHQH, the figure is at most 0.25.
On to QGTH, for which the enrichment ratio was at most 0.25.
The result for NDNV reads at most 0.25; that for GYEP, at most 0.25; that for EYSW, at most 0.25.
The result for SALL reads 18.6.
The result for FPVM reads at most 0.25; that for PQKH, at most 0.25; that for ILNM, at most 0.25.
For LKYK, the enrichment ratio is at most 0.25.
Consider KEYF, for which the enrichment ratio was at most 0.25.
As for MMLS, the figure is at most 0.25.
As for YVHD, the figure is at most 0.25; as for QMAG, at most 0.25; as for AWCV, at most 0.25.
The result for NTCR reads at most 0.25.
On to LKMD, for which the enrichment ratio was at most 0.25.
As for WDMD, the figure is at most 0.25; as for NRNF, at most 0.25; as for KGSS, at most 0.25.
As for YCQA, the figure is at most 0.25; as for NQGV, at most 0.25.
As for YAIM, the figure is at most 0.25.
Consider LHLE, for which the enrichment ratio was at most 0.25.
As for SEAL, the figure is 7.85.
AVQI: the enrichment ratio was at most 0.25.
The result for LYDG reads at most 0.25.
The result for KKVQ reads at most 0.25.
For the variant QEHQ, the enrichment ratio is at most 0.25.
Regarding LNSS, the enrichment ratio is at most 0.25.
The result for HMGL reads at most 0.25; that for QVPF, at most 0.25; that for SQTC, 20.9.
As for WYPF, the figure is at most 0.25; as for KLVK, at most 0.25; as for KRTY, at most 0.25.
Regarding MAGN, the enrichment ratio turned out to be 13.5.
The result for YFKR reads 0.642; that for QRPS, at most 0.25; that for LLAA, at most 0.25.
The result for IIWS reads at most 0.25.
For HILK, the enrichment ratio is at most 0.25.
In the case of INWC, the enrichment ratio was at most 0.25.
For the variant DQPE, the enrichment ratio is at most 0.25.
FWIL: the enrichment ratio is at most 0.25.
The result for GWPQ reads at most 0.25.
As for QWIV, the figure is at most 0.25; as for DCGE, at most 0.25; as for AGHM, at most 0.25.
The result for FVMK reads 0.777; that for HYTL, at most 0.25; that for YMQY, at most 0.25.
For the variant NAWH, the enrichment ratio was at most 0.25.
As for DLYG, the figure is at most 0.25.
As for DTAD, the figure is at most 0.25.
In the case of YSSR, the enrichment ratio was at most 0.25.
The result for PEMH reads at most 0.25; that for ITNQ, at most 0.25.
With GMPE, the enrichment ratio was at most 0.25.
Consider LNPK, for which the enrichment ratio was at most 0.25.
As for DPIW, the figure is at most 0.25.
As for KDFH, the figure is at most 0.25; as for LSEN, at most 0.25; as for ACYF, at most 0.25.
As for FHIG, the figure is at most 0.25; as for RYGN, at most 0.25; as for IHID, at most 0.25.
In the case of KKCY, the enrichment ratio was at most 0.25.
The result for VAQM reads at most 0.25; that for AECL, 20.9; that for AAKI, at most 0.25.
As for GKPT, the figure is at most 0.25; as for MPQF, at most 0.25.
As for IDWE, the figure is at most 0.25; as for DEYY, at most 0.25.
In the case of REAL, the enrichment ratio is at most 0.25.
The result for HRDP reads at most 0.25; that for ITWR, at most 0.25.
The result for QCWW reads at most 0.25.
As for GQYG, the figure is at most 0.25; as for VWPG, at most 0.25; as for QNVI, at most 0.25.
Turning to HHDC, the enrichment ratio is at most 0.25.
In the case of GKDY, the enrichment ratio is at most 0.25.
As for QRYF, the figure is at most 0.25; as for WYEE, at most 0.25.
For the variant DKVT, the enrichment ratio is at most 0.25.
The result for ITPM reads at most 0.25; that for NCES, at most 0.25.
The result for IGYF reads at most 0.25; that for IWGE, at most 0.25.
As for YCNV, the figure is at most 0.25; as for GTAD, at most 0.25; as for VGCF, at most 0.25.
In the case of DVML, the enrichment ratio is at most 0.25.
As for MFHA, the figure is at most 0.25; as for FQCE, at most 0.25; as for KLRY, at most 0.25.
Regarding WKDF, the enrichment ratio was at most 0.25.
NSTI: the enrichment ratio is at most 0.25.
The result for RVRM reads at most 0.25; that for SDKV, at most 0.25; that for YLCS, 0.567.
As for RHRK, the figure is at most 0.25; as for NQGW, at most 0.25; as for DMIK, at most 0.25.
Consider KTKQ, for which the enrichment ratio was at most 0.25.
The result for RNTF reads at most 0.25.
As for YRYG, the figure is at most 0.25.
The result for FMAK reads at most 0.25; that for TSFD, at most 0.25; that for MIGM, 2.52.
Turning to RTNK, the enrichment ratio was at most 0.25.
For the variant HPPC, the enrichment ratio is at most 0.25.
As for MAYR, the figure is at most 0.25; as for NVNK, at most 0.25.
The result for FYMF reads at most 0.25; that for GRWC, at most 0.25.
Turning to VMKM, the enrichment ratio is at most 0.25.
As for QQQV, the figure is at most 0.25; as for YKII, at most 0.25.
The result for FISA reads at most 0.25; that for GFDD, at most 0.25; that for TYQS, at most 0.25.
The result for SKYD reads at most 0.25; that for RAHT, at most 0.25; that for SYCP, at most 0.25.
In the case of NMRS, the enrichment ratio was at most 0.25.
As for LWDF, the figure is at most 0.25; as for PSTA, at most 0.25.
As for SNVE, the figure is at most 0.25; as for AQAA, 12.7; as for KGHE, at most 0.25.
As for RADK, the figure is at most 0.25; as for RRPV, at most 0.25.
In the case of AMFA, the enrichment ratio is at most 0.25.
The result for LDYG reads at most 0.25; that for KCWS, at most 0.25; that for TFHT, at most 0.25.
As for EELW, the figure is at most 0.25.
The result for GKEE reads at most 0.25; that for KFWS, at most 0.25.
With DPTP, the enrichment ratio is at most 0.25.
The result for TGWH reads 19.8; that for YEPQ, at most 0.25.
As for QSAH, the figure is at most 0.25.
As to MYCG, the enrichment ratio is at most 0.25.
As for NGCD, the figure is at most 0.25; as for EASI, at most 0.25.
The result for LMNL reads at most 0.25.
As for TQRL, the figure is at most 0.25; as for LHCV, at most 0.25.
As for NAHK, the enrichment ratio is at most 0.25.
The result for TCMS reads 10.9; that for NTYA, at most 0.25.
As for QLFW, the figure is at most 0.25; as for RKFL, at most 0.25.
As for VQMG, the figure is at most 0.25.
As for QNDI, the enrichment ratio was at most 0.25.
As for LSVM, the figure is at most 0.25; as for PCQT, at most 0.25.
For VESF, the enrichment ratio is at most 0.25.
As for VSTM, the figure is 14.3; as for DFKY, at most 0.25; as for DDNN, at most 0.25.
The result for PRCA reads at most 0.25.
As for VEHL, the figure is at most 0.25.
With HLMN, the enrichment ratio was at most 0.25.
Regarding PKSL, the enrichment ratio was at most 0.25.
The result for KCTK reads at most 0.25; that for SSTF, 7.3; that for QNPR, at most 0.25.
The result for VTAD reads at most 0.25; that for GGNA, at most 0.25; that for LEWF, at most 0.25.
The result for TYIR reads 0.362; that for AECY, 9.94.
Consider NMKP, for which the enrichment ratio was at most 0.25.
As for NRGL, the figure is at most 0.25; as for VLME, at most 0.25; as for TGEM, at most 0.25.
The result for NVPK reads at most 0.25.
The result for FMAN reads at most 0.25; that for KAYN, at most 0.25; that for HPMS, at most 0.25.
For TCWF, the enrichment ratio turned out to be 0.548.
The result for LPYV reads 0.296.
The result for LYFL reads at most 0.25; that for MDPK, at most 0.25.
As for KMFR, the figure is at most 0.25.
